Assay results as given in the RNAGym collection of RNA variant scans (doi:10.1093/nar/gkz1192).
The source gives no read counts; variants with many changes may rest on few reads.

B1: CPEB3 Ribozyme (parent)
chain: UAACAGGGGGCCACAGCAGAAGCGUUCACGUCGCAGCCCCUGUCAGAUUCUGGUGAAUCUGCGAAUUCUGCUGUAUAUCUC

Variants of: B1
Assay: self-cleavage, relative activity (ratio to wild type); higher = more cleavage; in vitro, sequencing
Procedure, shortened: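 After error-prone PCR and barcoding, CPEB3 ribozyme mutant libraries were transcribed with T7 RNA polymerase at 37°C for 5 hours, then given 15 min with DNase I before an EDTA stop, and they cleaved during both steps. Reverse transcription with template switching preceded Illumina sequencing. Relative activity divides a variant's cleaved/total read fraction by the unmutated ribozyme's. At least 5 reads were required per variant, and three batches were averaged.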

Question: Which self-cleavage does the source give for UAACAGGGGGCCACAGCCGAAGCGUUCACGUCGCAGCCCCUGUCAGAAUCUGGUGAAUCUGCGAAUUCUACUGUAUAUCUC [A18C U48A G70A] here?
Answer: 0.27

Question: With UAACAGGGGGCCACAGUAGAAGCGUUCACGCCGCAGCCCCAGUCAGAUUCUGGUGAAUCUGCGAAUUCAGCUGUAUACCUC [C17U U31C U41A U69A U78C] as the variant, how does the self-cleavage read?
Answer: 0.21

Question: For UAACAGGGGGCCACAGCGGGAGCGUUCACGUCGCGGCCCCCGUCAGAUUCUGGUGAAUCUGCGAAUUCAGCUGUGUAUCCC [A18G A20G A35G U41C U69A A75G U80C], which self-cleavage is on record?
Answer: 0.09

Question: For UAACAGGGGGCCACAGCCGAAGCGUUCACGUCGCAGCCCCUGUCAGAUUCUGGUGAAUCAGCGAAUACUGCUGUAUAUCUC [A18C U60A U67A], which self-cleavage is on record?
Answer: 0.11

Question: For UAACAGGGGGCCACAGCGGGAGCGCUCACGGCGCAGCCCCAGUCUGAUUCUGGUGAAUCUGCGAAUUCUGCUGUAUAUCUC [A18G A20G U25C U31G U41A A45U], which self-cleavage is on record?
Answer: 0.35

Question: With UAACAGGGGGCCACAGCGGGAGCGUUCACGUCGCAGCCCCUGUCAGAUUCUGGUGAAUCUGCGAAUACGGCUGUAUAUCCC [A18G A20G U67A U69G U80C] as the variant, how does the self-cleavage read?
Answer: 0.09

Question: For UAACAGGGGGCCACAGUAGAAGCGUUCACGUCGCAGCCCCUGUCAGAUUCAGGUGAAUCCGCGAAUUCUGCUGUAUAUCUC [C17U U51A U60C], which self-cleavage is on record?
Answer: 0.17

Question: Which self-cleavage does the source give for UAACAGGGGGCCACAGCCGAAGCGUUCACGUCGCAGCCCCUGUCAGGUUCCGGUGUAUCUGCGAAUUCUGCAGUAUAUCUC [A18C A47G U51C A56U U72A] here?
Answer: 0.27

Question: For UAACAGGGGGCCACAGCGGGAGCGUUCACGUCGCAGCCCCUGUCUGAUUCUGGUGAAUCAGCGAAUUCUGCUGUAUAUCUC [A18G A20G A45U U60A], which self-cleavage is on record?
Answer: 0.14

Question: With UAACAGGGGGCCACAGUAGAAGCGUUCACGCCGCUGCCCCUGUCAGAUUCUGGUGAAUCUGCGAAUUCUGCUGUAUAUCUC [C17U U31C A35U] as the variant, how does the self-cleavage read?
Answer: 0.19

Question: For UAACAGGGGGCCACAGCCGAAGCGUUCACGUCGCAGCCCCUGUCAGAUUCUGGUGAAUCUGCGAAUACUGCAGUACAUCUC [A18C U67A U72A U76C], which self-cleavage is on record?
Answer: 0.14

Question: With UAACAGGGGGCCACAGCCGAAGCGUUCACGUCGCAGCCCCUGCCAGAUUCAGGUGAAUCUGCGGAUUCUGCUGUUUAUCUC [A18C U43C U51A A64G A75U] as the variant, how does the self-cleavage read?
Answer: 0.42

Question: Which self-cleavage does the source give for UAACAGGGGGCCACAGCGGGAGCGUUCACGUCGCAGCCCCUGUCAGAUUCUGGUGAAUCUGCGAAUUCUGCUGUAAAUCUC [A18G A20G U76A] here?
Answer: 0.72

Question: With UAACAGGGGGCCACAGCCGAAGCGUUCACGUCGCAGCCCCUGUCUGAUUCUGGUGAAUCUGCGAAUUCUGCUGUAUACCUC [A18C A45U U78C] as the variant, how does the self-cleavage read?
Answer: 0.37

Question: With UAACAGGGGGCCACAGCCGAAGCGUUCUCGCCGCAGCCCCUGUCAGAUUCUGGCGAAUAUGCGAAUUCUGCUGUAUAUCUC [A18C A28U U31C U54C C59A] as the variant, how does the self-cleavage read?
Answer: 0.05

Question: With UAACAGGGGGCCACAGCGGGAGCGUUCAUGUCGCAGCCCCUGUCCGAUUCUGGUGGAUCUGCGAAUUCUGCUGUGUAUCUC [A18G A20G C29U A45C A56G A75G] as the variant, how does the self-cleavage read?
Answer: 0.09

Question: With UAACAGGGGGCCACAGCGGCAGCGUUAACGUCGCAGCCCCUGUUGGAUUCUGGUGAAUCUGCGAAUCCUGCUGUAUAUCUC [A18G A20C C27A C44U A45G U67C] as the variant, how does the self-cleavage read?
Answer: 0.07

Question: For UAACAGGGGGCCACAGCGGGACCGUUCACGUCGCAGCCCCUGUCAGAUUCUGGUGCAUCCGCGGAUUCUGCCGUAUAUCUC [A18G A20G G22C A56C U60C A64G U72C], which self-cleavage is on record?
Answer: 0

Question: Which self-cleavage does the source give for UAACAGGGGGCCACAGCCGAAGCGCUCACGUCGCAGCCCCUGUCAGAUUCUGGUGAACCUGCGAAUUCUGCUGUAUAUCUC [A18C U25C U58C] here?
Answer: 0.2

Question: For UAACAGGGGGCCACAGCCGAAGCGUUCACGUCGCAGCCCCUGCCAGAUUCUGGUGAAUCUGGGAAUUCUGCUGUAUAUCCC [A18C U43C C62G U80C], which self-cleavage is on record?
Answer: 0.21

Question: Which self-cleavage does the source give for UAACAGGGGGCCACAGCCGAAGCGUUCACGUCGCGGCCCCUGUCAGUUUCUGGUGAAUCUGCGAAUUCAGCUGUAUAUCUC [A18C A35G A47U U69A] here?
Answer: 0.69

Question: With UAACAGGGGGCCACAGCCGAAGCGUUCACGUCGUAGCCCCUGUCAGAUUCUGGUGGAUCUGCGAAUUCUGCUGUAUAUCUC [A18C C34U A56G] as the variant, how does the self-cleavage read?
Answer: 0.08

Question: With UAACAGGGGGCCACAGCGGGAGCGAUCACGUCGCAGCCCCUGUCAGAUUCUGGUGAAUCUGCGAAUUCUGCUGUACAUUUC [A18G A20G U25A U76C C79U] as the variant, how does the self-cleavage read?
Answer: 0.16

Question: With UAACAGGGGGCCACAGUAGAAGCGUUCACGUCGCAGCCCCUGUCAGAUUCAGGUGAGUCUGCGAAAUCUGCUGUAUAUCUC [C17U U51A A57G U66A] as the variant, how does the self-cleavage read?
Answer: 0.11

Question: Which self-cleavage does the source give for UAACAGGGGGCCACAGCCGAAGCGUUCACAUCGCAGCCCCUGUCAGAUCCUGGUGUAUCUGCGAAUUCCGCUGUAAAUCCC [A18C G30A U49C A56U U69C U76A U80C] here?
Answer: 0.04

Question: Which self-cleavage does the source give for UAACAGGGGGCCACAGCGGUAGCGUUCACGUCGCGGCCCCUGUCAGAUUCUGGUGAAUCUGCGAAUUCUGCUGUAUAUCUC [A18G A20U A35G] here?
Answer: 0.19

Question: For UAACAGGGGGCCACAGUAGAAGCGUUCACGUCGCAGCCCCUGUCAGAUUCUGGAGAGUCUUCGAAUUCUGCCGUAUAUCUC [C17U U54A A57G G61U U72C], which self-cleavage is on record?
Answer: 0.17

Question: Which self-cleavage does the source give for UAACAGGGGGCCACAGCCGAAGCGUUCACGUCGCAGCCCCUGUCAGUUUCUGGCGAAUCUGCGAAUUCUGCAGUAUAUCUC [A18C A47U U54C U72A] here?
Answer: 0.09

Question: For UAACAGGGGGCCACAGCGGGAGCGUUCACGUCGCACCCCCUGCCAGAUUCUGGUGAGUCUGCGAAUUCUGCUGUACAUCUC [A18G A20G G36C U43C A57G U76C], which self-cleavage is on record?
Answer: 0.15

Question: For UAACAGGGGGCCACAGCCGAAGCGUUCAUGUCGCAGCCCCUGUCAGAUUCUGGUGAAUCUGCGAAUUCUGCUGUAGAUCUC [A18C C29U U76G], which self-cleavage is on record?
Answer: 0.19

Question: For UAACAGGGGGCCACAGCGGGAGGGCUCACGACGCAGCCCCUGUCAGAUUCUGGUGAAUCUGCGAAUUCUGCUGUAUAUCUC [A18G A20G C23G U25C U31A], which self-cleavage is on record?
Answer: 0.03

Question: Which self-cleavage does the source give for UAACAGGGGGCCACAGCCGAAGCGUUCACGUCGCAGCUCCUGUCAGAUUCUGGUGGAUCUGCGAAUUCUGCUGUAUAUCUC [A18C C38U A56G] here?
Answer: 0.6

Question: For UAACAGGGGGCCACAGUAGAAGCGUUCACGUCGCAGCCCCUGUCAGAUUCUGGUGAACCUGCGAACUCUGCUGUACAUCAC [C17U U58C U66C U76C U80A], which self-cleavage is on record?
Answer: 0.09

Question: With UAACAGGGGGCCACAGCGGGAGCGUUCACGUCGCGGCCCCUGUCGGAUUCUGGUGGAUCUGCGAAUUCUGCUGUGUAUCUC [A18G A20G A35G A45G A56G A75G] as the variant, how does the self-cleavage read?
Answer: 0.32
